In paper PMC2808332:
No constants are given. Whether binding was seen depends on the method and setting. Some results given as binding are weak or reduced against the parent protein; the word gives no strength.

Chains of the proteins cited; added tags and fusions are not shown.
UniProt P52333: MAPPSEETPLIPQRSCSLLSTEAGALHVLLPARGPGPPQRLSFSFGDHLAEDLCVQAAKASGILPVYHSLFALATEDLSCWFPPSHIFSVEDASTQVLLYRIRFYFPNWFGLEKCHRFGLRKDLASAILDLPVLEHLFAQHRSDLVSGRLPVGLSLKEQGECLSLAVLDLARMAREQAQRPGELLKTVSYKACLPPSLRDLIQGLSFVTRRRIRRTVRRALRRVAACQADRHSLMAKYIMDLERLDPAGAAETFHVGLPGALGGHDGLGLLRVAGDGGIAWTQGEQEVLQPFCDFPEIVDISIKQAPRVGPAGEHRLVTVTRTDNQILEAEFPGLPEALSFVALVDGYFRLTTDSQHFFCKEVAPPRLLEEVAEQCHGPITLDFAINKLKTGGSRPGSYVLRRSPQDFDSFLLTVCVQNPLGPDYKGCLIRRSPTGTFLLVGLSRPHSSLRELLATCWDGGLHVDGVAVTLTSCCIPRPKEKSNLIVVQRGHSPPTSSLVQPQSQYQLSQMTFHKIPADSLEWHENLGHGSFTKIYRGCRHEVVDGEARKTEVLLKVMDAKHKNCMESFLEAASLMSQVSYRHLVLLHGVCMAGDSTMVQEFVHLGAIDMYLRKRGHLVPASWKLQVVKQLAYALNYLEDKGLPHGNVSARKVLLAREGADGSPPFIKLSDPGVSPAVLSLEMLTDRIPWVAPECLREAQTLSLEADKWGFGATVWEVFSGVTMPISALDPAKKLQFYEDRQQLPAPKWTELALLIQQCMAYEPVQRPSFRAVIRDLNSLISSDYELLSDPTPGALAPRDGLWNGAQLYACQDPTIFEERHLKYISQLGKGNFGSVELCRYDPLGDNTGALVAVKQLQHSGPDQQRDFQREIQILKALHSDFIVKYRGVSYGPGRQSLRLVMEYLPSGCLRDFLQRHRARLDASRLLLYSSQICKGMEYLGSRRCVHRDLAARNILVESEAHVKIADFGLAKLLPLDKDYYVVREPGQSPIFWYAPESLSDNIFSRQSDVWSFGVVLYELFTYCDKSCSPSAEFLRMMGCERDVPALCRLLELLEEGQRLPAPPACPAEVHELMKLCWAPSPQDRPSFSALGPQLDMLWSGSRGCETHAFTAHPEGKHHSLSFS

How the values were obtained:
Test in all cases: peptide or protein array; Invitrogen Protoarray v4.0, about 8,400 human proteins spotted on nitrocellulose-coated glass slides; 10 µg biotinylated tag-free NEMO in 120 µl probing buffer (PBS, 0.5 mM DTT, 5 mM MgCl2, 5% glycerol, 0.05% Triton X-100), 4°C, 1.5 h; bound NEMO detected with labelled streptavidin; hits Z-score > 3, hits of the biotin-GST control array subtracted; both purified
[1] = target: T1, FERM domain containing 8 (human) (UniProt Q9BZ67)
T1 sequence: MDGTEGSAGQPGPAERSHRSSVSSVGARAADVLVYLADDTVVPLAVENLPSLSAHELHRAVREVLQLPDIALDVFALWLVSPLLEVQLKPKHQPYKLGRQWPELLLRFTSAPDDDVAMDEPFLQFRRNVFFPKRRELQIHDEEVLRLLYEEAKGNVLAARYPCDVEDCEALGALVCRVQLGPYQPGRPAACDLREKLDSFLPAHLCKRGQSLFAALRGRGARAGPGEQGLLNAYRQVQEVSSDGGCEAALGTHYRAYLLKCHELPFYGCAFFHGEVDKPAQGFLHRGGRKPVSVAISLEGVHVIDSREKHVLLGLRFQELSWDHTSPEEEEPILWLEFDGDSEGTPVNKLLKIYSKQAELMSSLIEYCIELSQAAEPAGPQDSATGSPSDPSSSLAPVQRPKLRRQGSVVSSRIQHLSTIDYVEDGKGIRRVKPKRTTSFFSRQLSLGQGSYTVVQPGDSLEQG

Janus kinase 3 (human) = Janus kinase 3 (human) (UniProt P52333)
[2] = target: T2, Killer cell immunoglobulin-like receptor, three domains, X1 (human) (UniProt Q9H7L2)
T2 sequence: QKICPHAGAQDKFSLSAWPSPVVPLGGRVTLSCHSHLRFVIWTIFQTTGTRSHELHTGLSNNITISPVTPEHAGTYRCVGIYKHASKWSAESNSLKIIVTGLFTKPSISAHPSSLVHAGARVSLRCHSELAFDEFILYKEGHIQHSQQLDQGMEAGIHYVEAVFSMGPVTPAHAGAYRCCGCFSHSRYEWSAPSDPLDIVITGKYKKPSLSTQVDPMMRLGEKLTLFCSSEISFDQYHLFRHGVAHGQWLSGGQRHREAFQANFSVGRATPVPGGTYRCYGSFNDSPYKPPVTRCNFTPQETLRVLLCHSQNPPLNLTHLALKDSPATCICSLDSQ

[3] = target: T3, Minichromosome maintenance complex component 10 (human) (UniProt Q7L590)
T3 sequence: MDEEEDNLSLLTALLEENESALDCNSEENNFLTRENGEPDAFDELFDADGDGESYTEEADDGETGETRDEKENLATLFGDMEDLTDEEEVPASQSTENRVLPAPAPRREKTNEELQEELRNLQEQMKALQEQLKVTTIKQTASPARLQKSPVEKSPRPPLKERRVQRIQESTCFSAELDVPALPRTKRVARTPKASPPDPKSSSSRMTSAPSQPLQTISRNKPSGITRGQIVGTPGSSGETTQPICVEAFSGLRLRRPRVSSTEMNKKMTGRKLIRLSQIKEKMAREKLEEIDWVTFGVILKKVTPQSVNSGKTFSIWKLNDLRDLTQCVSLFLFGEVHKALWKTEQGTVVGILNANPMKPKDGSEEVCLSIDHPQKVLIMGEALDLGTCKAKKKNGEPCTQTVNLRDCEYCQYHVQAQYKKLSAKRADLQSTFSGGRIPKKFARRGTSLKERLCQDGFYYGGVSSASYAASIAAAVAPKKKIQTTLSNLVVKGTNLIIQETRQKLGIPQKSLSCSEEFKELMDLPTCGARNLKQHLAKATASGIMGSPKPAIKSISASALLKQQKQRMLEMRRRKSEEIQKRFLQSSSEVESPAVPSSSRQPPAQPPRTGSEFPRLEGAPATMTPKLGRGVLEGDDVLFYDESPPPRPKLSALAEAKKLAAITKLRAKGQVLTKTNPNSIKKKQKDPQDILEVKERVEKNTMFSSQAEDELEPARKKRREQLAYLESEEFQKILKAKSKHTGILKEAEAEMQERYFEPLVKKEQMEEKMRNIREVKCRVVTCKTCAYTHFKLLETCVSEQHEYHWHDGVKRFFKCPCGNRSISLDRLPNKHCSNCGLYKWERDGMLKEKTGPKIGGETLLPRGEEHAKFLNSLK

[4] = target: T4, N-terminal EF-hand calcium binding protein 3 (human) (UniProt Q96P71)
T4 sequence: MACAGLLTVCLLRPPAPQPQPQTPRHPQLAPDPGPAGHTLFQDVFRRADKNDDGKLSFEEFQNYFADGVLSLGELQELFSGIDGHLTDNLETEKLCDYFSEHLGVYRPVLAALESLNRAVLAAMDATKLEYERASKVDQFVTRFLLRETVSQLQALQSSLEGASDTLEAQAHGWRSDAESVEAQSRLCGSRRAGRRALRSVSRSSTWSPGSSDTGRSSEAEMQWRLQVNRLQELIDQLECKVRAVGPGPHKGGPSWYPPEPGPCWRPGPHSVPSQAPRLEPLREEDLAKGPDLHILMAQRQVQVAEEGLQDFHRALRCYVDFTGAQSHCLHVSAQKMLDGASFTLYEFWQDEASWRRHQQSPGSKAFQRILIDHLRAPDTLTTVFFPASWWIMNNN

Measured: binding

NEMO (NF-κB essential modulator), tag-free, biotinylated (from UniProt Q9Y6K9 1-419)
binds: all assays above
